# From the supplement of paper PMC3334620
# The full ranking holds about 33,000 sequences; the median of “E-score (-0.5 to 0.5)” is about -0.053, and the highest 2% start at about 0.37. This is one part of the list.
# Target: Hap1 (UniProt P0CE41)
# Assay: PBM E-score (8-mer binding enrichment) (E-score (-0.5 to 0.5)); higher = stronger / more preferred TF binding; most listed sequences are background and not binding sites
# Conditions: protein concentration: 200 nM; construct: GST-DNA-binding domain
# Procedure, shortened: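 The E-score, a modified Wilcoxon-Mann-Whitney statistic, was computed by the Universal PBM Analysis Suite for every ungapped eight-base word pooled with its reverse complement. Scans behind it were normalised with masliner after bound GST-tagged yeast transcription factors were detected with fluorescent anti-GST. The proteins, at about 100-200 nM, had been applied to universal all-10-mer Agilent arrays made double-stranded by primer extension.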
# Chain of UniProt P0CE41 (P0CE41 whole entry): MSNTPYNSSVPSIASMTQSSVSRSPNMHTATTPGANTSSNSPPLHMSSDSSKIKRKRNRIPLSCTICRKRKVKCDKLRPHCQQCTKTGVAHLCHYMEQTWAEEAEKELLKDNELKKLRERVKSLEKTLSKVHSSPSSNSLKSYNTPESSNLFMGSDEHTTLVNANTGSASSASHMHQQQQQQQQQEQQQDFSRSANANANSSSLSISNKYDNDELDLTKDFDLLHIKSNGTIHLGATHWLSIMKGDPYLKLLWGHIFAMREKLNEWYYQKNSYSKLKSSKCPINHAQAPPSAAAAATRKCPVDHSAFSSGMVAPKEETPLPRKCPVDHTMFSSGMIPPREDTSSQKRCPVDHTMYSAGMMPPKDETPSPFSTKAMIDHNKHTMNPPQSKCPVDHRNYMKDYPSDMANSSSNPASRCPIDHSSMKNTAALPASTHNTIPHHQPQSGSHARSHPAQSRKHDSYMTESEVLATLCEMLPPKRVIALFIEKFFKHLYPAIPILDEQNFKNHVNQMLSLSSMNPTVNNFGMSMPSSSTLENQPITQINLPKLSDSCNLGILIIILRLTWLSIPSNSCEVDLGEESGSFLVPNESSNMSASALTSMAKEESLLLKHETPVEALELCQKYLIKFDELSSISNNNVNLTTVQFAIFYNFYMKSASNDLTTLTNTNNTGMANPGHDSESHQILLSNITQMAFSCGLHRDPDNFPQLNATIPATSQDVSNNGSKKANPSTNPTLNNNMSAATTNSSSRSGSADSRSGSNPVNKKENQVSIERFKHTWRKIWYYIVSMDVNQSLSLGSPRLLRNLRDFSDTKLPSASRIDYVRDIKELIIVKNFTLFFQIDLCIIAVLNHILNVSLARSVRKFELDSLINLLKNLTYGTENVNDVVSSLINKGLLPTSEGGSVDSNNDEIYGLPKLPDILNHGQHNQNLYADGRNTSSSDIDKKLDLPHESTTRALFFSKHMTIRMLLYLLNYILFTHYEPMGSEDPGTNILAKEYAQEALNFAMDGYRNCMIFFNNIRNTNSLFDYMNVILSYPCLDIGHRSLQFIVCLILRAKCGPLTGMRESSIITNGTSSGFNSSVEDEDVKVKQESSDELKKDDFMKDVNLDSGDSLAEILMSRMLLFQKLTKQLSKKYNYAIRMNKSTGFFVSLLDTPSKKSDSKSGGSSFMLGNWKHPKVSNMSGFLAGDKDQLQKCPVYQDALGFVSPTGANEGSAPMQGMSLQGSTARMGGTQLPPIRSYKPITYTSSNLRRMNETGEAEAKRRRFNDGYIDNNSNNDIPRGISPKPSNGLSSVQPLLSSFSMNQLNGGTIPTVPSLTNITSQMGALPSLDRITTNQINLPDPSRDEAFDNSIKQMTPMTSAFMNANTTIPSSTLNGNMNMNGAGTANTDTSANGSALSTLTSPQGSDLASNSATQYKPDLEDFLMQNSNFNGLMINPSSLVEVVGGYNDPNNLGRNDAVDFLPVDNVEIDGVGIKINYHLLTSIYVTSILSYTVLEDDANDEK
row,Sequence,PBM E-score
1,AAAAACTC,0.0741
2,CCAGAATA,0.0162
3,CCAACTAA,-0.0246
4,CACGGTCC,0.031
5,CCACTTCA,-0.156
6,CGGAAGAC,0.231
7,CTTTAGCA,-0.0662
8,GCCTTAAA,0.165
9,ACATGTGG,-0.167
10,AAGTTGGA,-0.104
11,CGTTAGGA,0.204
12,CGGTTTAA,0.168
13,CACTATTA,-0.0035
14,CATCAGAC,-0.00431
15,ACGCCCAT,0.0558
16,ACCCATGG,-0.00358
17,CGATATTA,0.289
18,CCATGAGG,-0.0509
19,GCAGAAAA,0.0368
20,CTTTCATC,-0.119
21,TCATACGA,-0.121
22,CGCGGCCC,0.169
23,GAGCTGAC,0.0197
24,AAACAACG,0.0643
25,AGGCCTTG,-0.18

row,Sequence,PBM E-score
1,GAGGTCGA,-0.21
2,GTGGATAA,-0.0821
3,AGAAGCCT,-0.18
4,CGGTAGAG,0.23
5,CGGCCCGC,0.227
6,AGGCTGGC,-0.264
7,AGTCCATG,-0.117
8,ACCTGAAC,-0.134
9,GCTGATCC,0.196
10,AAAATATC,-0.0515
11,AGAATAAC,-0.0616
12,CGGTACAA,0.218
13,AAGATGGG,-0.126
14,CGTTCTAA,0.0112
15,GCCGTCGA,0.0668
16,TCACCCAA,-0.0125
17,CAACCACC,0.0746
18,GGCTCCCA,-0.0936
19,ATTGCCGC,0.0752
20,ATGGAGGG,-0.427
21,ATAGATCG,0.0518
22,CACGCAGC,0.0107
23,AATACTTG,-0.112
24,AGTACGTC,-0.0969
25,CAAGTTAG,-0.0771

row,Sequence,PBM E-score
1,CTCTAAAA,-0.0794
2,GCAGCTAC,-0.0107
3,AAGATTTA,0.0176
4,AGGTCAGC,-0.205
5,CGCCTAAA,-0.0728
6,TATATCAA,-0.0594
7,CCCATGCG,-0.18
8,AGTGACCC,-0.102
9,ATTGATCA,-0.206
10,AATATCGC,0.314
11,CCCAAACA,-0.202
12,CGCGATTA,0.0933
13,GAGTTTCA,-0.0937
14,CCACGCGC,-0.0992
15,GCGTGTAC,0.0377
16,CCGTTGTA,0.239
17,GATTTCGC,0.204
18,CGCCAACC,0.16
19,GCATCTCC,0.124
20,GGTAGAAA,0.0318
21,ACACTCTC,0.0326
22,AGCGAAAC,0.113
23,CCGCCACA,-0.054
24,CTTTTTCC,0.0285
25,AGATATAT,0.151

row,Sequence,PBM E-score
1,AACAACCT,-0.184
2,AGGGTATC,-0.0283
3,AACACGTC,-0.0992
4,CCTTACAA,-0.109
5,AGTAGTAG,-0.151
6,AATATACT,-0.133
7,ACTTGCCC,0.0774
8,GGGACCAA,-0.113
9,GCTCAGCC,-0.175
10,CAAACTAA,0.0274
11,AAGGATTC,-0.117
12,CGATCCCG,0.241
13,TATGGTGA,-0.147
14,GAGGGGCC,-0.0548
15,CTCCGCCA,0.12
16,ATAAGCTC,0.146
17,ACACGCTG,-0.205
18,CGAAACCC,0.33
19,CATAGTTA,-0.0706
20,ACTTCGCT,0.0445
21,AGCGTGGC,-0.109
22,CTGTCGGC,0.331
23,CCAGCTGC,-0.0271
24,GATTTGAC,-0.144
25,AATCTATG,-0.102

row,Sequence,PBM E-score
1,GAGGACAA,-0.115
2,ATAGCCCA,-0.0975
3,CCCCGCGA,0.185
4,CCCTGACA,-0.181
5,CGGAGGTC,0.261
6,TACAACGA,-0.0607
7,CAATTTGA,-0.0393
8,GCGCGCAA,0.205
9,CTACTATA,0.126
10,ACAAGGAA,0.0242
11,ACAATCCC,0.254
12,AAGTTGGT,-0.00953
13,CAAGTGTA,-0.286
14,CTATGTGC,-0.115
15,CGGGCGAC,0.304
16,AGTCGTGA,-0.295
17,CCGGTCTC,0.251
18,AGCATGCG,-0.0823
19,ACTAGAGA,-0.12
20,AGTACTCA,-0.265
21,GTACCGGA,0.393
22,GGGGGTTA,-0.181
23,CGCCGTCC,0.0969
24,CCGGGATA,0.301
25,GGCGACCC,0.208

row,Sequence,PBM E-score
1,GACCATAC,0.0169
2,CGTATTGC,0.153
3,ACGTTGGC,-0.134
4,CTTGGACC,-0.0592
5,GGGGTTAC,0.218
6,CGGGAATA,0.458
7,AGCAGAAC,-0.0496
8,ACCTTCCC,-0.0752
9,CTAGCACC,0.0163
10,AAACGCAG,-0.119
11,AGCACTTG,-0.185
12,GACTGGTA,-0.0324
13,AAGTTCAG,-0.227
14,CGCTGACC,0.0396
15,AGTTAAGA,-0.0129
16,CCATCCAC,-0.15
17,TCATATCA,-0.128
18,AACTGATC,-0.0539
19,ATTATCAA,-0.167
20,CCGCAACG,0.216
21,ATAGGGTG,-0.24
22,GTTGGATA,-0.083
23,AGTCATCC,-0.0318
24,CATAAGGA,-0.151
25,CAGCCCGG,0.308

row,Sequence,PBM E-score
1,GCGCGTAC,0.196
2,CTCCGACA,0.291
3,ACTCTTGG,-0.22
4,AGGCTCTA,-0.199
5,CCCATCGG,0.307
6,TCAAGAGA,-0.177
7,ATCGCTCC,0.214
8,ACTGGCGA,-0.17
9,ACGACATC,-0.0465
10,CACTACCC,-0.075
11,CTGCCGAA,0.103
12,AATGGAAG,0.00758
13,ACACCGAG,0.336
14,CCTGGAAG,-0.173
15,CAGGATCG,-0.0662
16,AAAGAGAG,-0.166
17,CCCGGAAA,0.411
18,ACTAGCGC,-0.112
19,ACTAATCA,-0.0211
20,CAATTTCG,0.0837
21,CAAGAGGG,-0.274
22,AACGTATG,-0.275
